For 20 compounds, nuclei count results are on record in the supplement of paper PMC8183993.

Where “and” joins values, the source holds several entries; their conditions need not be identical. Equal entries are not always repeated. Structures can show the parent of a compound that is named as a salt. ± gives the standard deviation of the averaged measurements. Whole data set: some 3,200 compounds, median “nuclei count (viability) relative to DMSO” near 99, cut for the lowest 2% near 16. The list shows a part of the results.

For this test, the system named is U2OS. The test can be described thus: nuclei count (viability) relative to DMSO (% of DMSO); higher = more viable cells. As to conditions: 10 µM; 24 h. The method, then: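 Primary image-based screen in U2OS cells: compounds at 10 uM for 24 h, then a 1 h o-propargyl-puromycin (OPP) pulse, click labelling, and high-throughput microscopy. Mean cytoplasmic OPP intensity and nuclei count were normalised to DMSO wells within each plate (DMSO = 100) and averaged over triplicate plates.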
In turn, `C[C@H](N)[C@H](O)c1cccc(O)c1` [Metaraminol bitartrate] had a nuclei count of 86.1.

Regarding `CCOC(=O)n1ccn(C)c1=S` [Carbimazole], the nuclei count worked out at 108.

`CC(C)[C@H]1c2ccc(F)cc2CC[C@@]1(CCN(C)CCCc1nc2ccccc2[nH]1)OC(=O)C1CC1` [NNC 55-0396 dihydrochloride] gave a nuclei count of 10.5.

`COc1cc(O)c2c(c1)C(=O)c1cc(C)cc(O)c1C2=O` [Rheochrysidin (Physcione)] returned a nuclei count of 108.

For `COc1cc(N2CCC(N)CC2)ccc1Nc1ncc(Cl)c(-c2c[nH]c3ccccc23)n1`, the nuclei count turned out to be 7.03.

For `Nc1[nH]nc2nnc(-c3c(-c4ccccc4)nn4ccccc34)cc12`, the nuclei count stood at 76.6.

In the case of `O=C1CN(/N=C/c2ccc(-c3ccc([N+](=O)[O-])cc3)o2)C(=O)N1` [Dantrolene sodium salt], the nuclei count turned out to be 106.

`O=C1CN(/N=C/c2ccc(-c3ccc([N+](=O)[O-])cc3)o2)C(=O)N1` [Dantrolene] registered a nuclei count of 107.

As for `O=C1CN(/N=C/c2ccc(-c3ccc([N+](=O)[O-])cc3)o2)C(=O)N1` [Dantrolene, sodium salt], the nuclei count is 96.8.

`O=C1Nc2ccc([N+](=O)[O-])cc2C1=O` [5-Nitroisatin] displayed a nuclei count of 99.

Compound `Cc1cc(NS(=O)(=O)c2ccc(N)cc2)no1` [Sulfamethoxazole] yielded a nuclei count of 103.

`CN[C@@H]1[C@@H](O)[C@@H](O[C@@H]2[C@@H](O)[C@H](O[C@H]3OC(CN)=CC[C@H]3N)[C@@H](N)C[C@H]2N)OC[C@]1(C)O` [Sisomicin sulfate]: the nuclei count is 101.

Compound `CC1(C)S[C@@H]2[C@H](NC(=O)[C@H](C(=O)O)c3ccsc3)C(=O)N2[C@H]1C(=O)O` [Ticarcillin sodium] showed a nuclei count of 108.

Consider `CC(C)n1nnc2cc(C(=O)O)ccc21`, for which the nuclei count turned out to be 104.

For the compound `COC(=O)c1c(C)[nH]c(C)c1C(=O)c1ccccc1Cc1ccccc1`, the nuclei count is 95.1 and 97.3.

On to `COc1ccc(/C=C\c2cc(OC)c(OC)c(OC)c2)cc1O` [Combretastatin A4], for which the nuclei count came to 19.9.

In turn, `CCCC1O[C@@H]2C[C@H]3[C@@H]4CCC5=CC(=O)C=C[C@]5(C)[C@H]4[C@@H](O)C[C@]3(C)[C@]2(C(=O)CO)O1` (stereo not given in full) [Budesonide] had a nuclei count of 105 ± 3.4.

Take `CCOC(=O)[C@H](CCc1ccccc1)N[C@H]1CCCN2CCC[C@@H](C(=O)O)N2C1=O` [Cilazapril monohydrate (Inhibace)]: the nuclei count is 96.7.

For the compound `COc1cc(C(C)=O)ccc1OCCCN1CCC(c2noc3cc(F)ccc23)CC1` [Iloperidone (Fanapt)], the nuclei count is 104.

In turn, `CC1=C(/C=C/C(C)=C/C=C/C(C)=C/C=C/C=C(C)/C=C/C=C(C)/C=C/C2=C(C)C(=O)CCC2(C)C)C(C)(C)CCC1=O` [Canthaxanthin] came in with a nuclei count of 105.
